These molecules were tested on pDCs (assay: Planned: IFNA expression in pDCs from healthy donors and COVID-19 subjects cultured with TCA inhibitors). Details: UK5099 at 10, 20, and 40 μM, CB839 at 0.5 μM.

| SMILES | IFNA expression in cultured pDCs |
| --- | --- |
| O=C(Cc1cccc(OC(F)(F)F)c1)Nc1ccc(CCCCc2nnc(NC(=O)Cc3ccccn3)s2)nn1 [CB839] | expected to reduce |
| O=C(O)CCCCC(CCSCc1ccccc1)SCc1ccccc1 (stereo not drawn) [CPI-613, 6,8-bis-benzylthio-octanoic acid] | expected to reduce |
| N#C/C(=C\c1cn(-c2ccccc2)c2ccccc12)C(=O)O [UK5099] | expected to reduce |

From patent US20250009779A1 (priority 2021, published 2025)
